Experimental data as given in the supplement of paper PMC4604168 (melanoma cell lines).
Some of the results follow. Many values rest on one well or one pass, so single values are uncertain.
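Also: cells treated in 1,536-well plates, then fixed and DAPI-stained, with nuclei counted from automated high-throughput microscope images.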

These compounds were tested on UACC257 (assay: cell count relative to DMSO control; melanoma cells; higher = more viable cells). Details: library dose: standard library concentration; 72 h.
Work on `C[C@@H](Oc1cc(-c2cnn(C3CCNCC3)c2)cnc1N)c1c(Cl)ccc(F)c1Cl` [Crizotinib] + Oc1nc(-c2ccc(C(F)(F)F)cc2)nc2c1CSCC2 [XAV939] (first compound 1 µM, partner dose 10 µM) yielded a cell count of 85.7%.
With `CS(=O)(=O)CCNCc1ccc(-c2ccc3ncnc(Nc4ccc(OCc5cccc(F)c5)c(Cl)c4)c3c2)o1` [lapatinib] + O=c1cc(-c2cccc3c2Sc2ccccc2S3)oc(N2CCOCC2)c1 [KU55933] (first compound 4 µM, partner dose 5 µM) the cell count was 95.9%.
Work on `C=CCNC1=C2C[C@@H](C)C[C@H](OC)[C@H](O)[C@@H](C)/C=C(\C)[C@H](OC(N)=O)[C@@H](OC)/C=C\C=C(/C)C(=O)NC(=CC1=O)C2=O` [Tanespimycin] + CCN(CC)CCCCNc1ncc2cc(-c3cc(OC)cc(OC)c3)c(NC(=O)NC(C)(C)C)nc2n1 [PD173074] (first compound 0.01 µM, partner dose 0.5 µM) yielded a cell count of 116%.
`CS(=O)(=O)CCNCc1ccc(-c2ccc3ncnc(Nc4ccc(OCc5cccc(F)c5)c(Cl)c4)c3c2)o1` [lapatinib] + CCc1ccc(CCOc2ccc(CC3SC(=O)NC3=O)cc2)nc1 [pioglitazone] (first compound 4 µM, partner dose 10 µM) gave a cell count of 77.7%.
With `CN1CCN(c2ccc3nc(-c4c(N)c5c(F)cccc5[nH]c4=O)[nH]c3c2)CC1` [Dovitinib] + COc1cc(N2CCC(N3CCN(C)CC3)CC2)ccc1Nc1ncc(Cl)c(Nc2ccccc2S(=O)(=O)C(C)C)n1 [NVP-TAE684] (first compound 0.5 µM, partner dose 0.4 µM) the cell count was 75%.
In the case of `CS(=O)(=O)CCNCc1ccc(-c2ccc3ncnc(Nc4ccc(OCc5cccc(F)c5)c(Cl)c4)c3c2)o1` [lapatinib] + COc1ccc2c(c1)CCC1C2CCC2(C)C(NCCCCCCN3C(=O)C=CC3=O)CCC12 [U73122] (first compound 4 µM, partner dose 2 µM), the cell count is reported as 96.6%.
In the case of `CNC(=O)c1cc(Oc2ccc(NC(=O)Nc3ccc(Cl)c(C(F)(F)F)c3)cc2)ccn1` [sorafenib] + CCN(CC)CCCCNc1ncc2cc(-c3cc(OC)cc(OC)c3)c(NC(=O)NC(C)(C)C)nc2n1 [PD173074] (first compound 2 µM, partner dose 0.5 µM), the cell count is reported as 96.5%.
`C=CCNC1=C2C[C@@H](C)C[C@H](OC)[C@H](O)[C@@H](C)/C=C(\C)[C@H](OC(N)=O)[C@@H](OC)/C=C\C=C(/C)C(=O)NC(=CC1=O)C2=O` [Tanespimycin] + CCCCCCCCCCCC1=C(O)C(=O)C=C(O)C1=O [Embelin] (first compound 0.01 µM, partner dose 6 µM) showed a cell count of 82.9%.
`C=CCNC1=C2C[C@@H](C)C[C@H](OC)[C@H](O)[C@@H](C)/C=C(\C)[C@H](OC(N)=O)[C@@H](OC)/C=C\C=C(/C)C(=O)NC(=CC1=O)C2=O` [Tanespimycin] + COc1ccc2c(c1)CCC1C2CCC2(C)C(NCCCCCCN3C(=O)C=CC3=O)CCC12 [U73122] (first compound 0.01 µM, partner dose 2 µM) gave a cell count of 78.1%.
With `CNC(=O)c1cc(Oc2ccc(NC(=O)Nc3ccc(Cl)c(C(F)(F)F)c3)cc2)ccn1` [sorafenib] + O=C1NC(=O)/C(=C/c2ccc(-c3ccc(F)cc3O)o2)S1 [AS252424] (first compound 2 µM, partner dose 5 µM) the cell count was 91%.
Compound `CN1CCN(c2ccc3nc(-c4c(N)c5c(F)cccc5[nH]c4=O)[nH]c3c2)CC1` [Dovitinib] + Oc1nc(-c2ccc(C(F)(F)F)cc2)nc2c1CSCC2 [XAV939] (first compound 0.5 µM, partner dose 10 µM) has a cell count of 64.1%.
For `CS(=O)(=O)CCNCc1ccc(-c2ccc3ncnc(Nc4ccc(OCc5cccc(F)c5)c(Cl)c4)c3c2)o1` [lapatinib] + CCCCCCCCCCCC1=C(O)C(=O)C=C(O)C1=O [Embelin] (first compound 4 µM, partner dose 6 µM), the cell count was 82.7%.
`CN1CCN(c2ccc3nc(-c4c(N)c5c(F)cccc5[nH]c4=O)[nH]c3c2)CC1` [Dovitinib] + COc1ccc(-c2ccc3c(N4CCOCC4)nc(N4C[C@@H](C)O[C@@H](C)C4)nc3n2)cc1CO [KU0063794] (first compound 0.5 µM, partner dose 0.1 µM) gave a cell count of 102%.
